Consider 54 compounds from ChEMBL document CHEMBL4888484, “Replenishing the malaria drug discovery pipeline: Screening and hit evaluation of the MMV Hit Generation Library 1 (HGL1) against asexual blood stage Plasmodium falciparum ,using a nano luciferase reporter read-out” (2022).

About 540 (0.36%) of roughly 150,000 compounds showed an effect of 50% or more. The list shows a part of the results.

A word on the % Inhibition: it is the change of the read-out against control, counted positive when it falls.

The assay deals with Plasmodium falciparum. Put plainly: Primary screen in NF54 nanoGlo assay, in single point, at 2uM, 72h; a lower Z score goes with more inhibition. The format is functional, Erythrocyte. The settings on record: timepoint 72 hour.
In the case of `CCS(=O)(=O)N1CC(CNC(=O)N2CCCC(C)(C)CC2)C1`, the “% Inhibition” value is listed as -8% and the Z score is 0.88.
Turning to `Cc1cc(-c2nc(-c3ccc(C(=O)N(C)C)nc3)no2)sc1C`, the “% Inhibition” value was -10% and the Z score is reported as 1.46.
Regarding `Cn1cccc1-c1nc(-c2cnccn2)no1`, the “% Inhibition” value is given as -19% and the Z score worked out at 2.1.
`O=C1C[C@H](c2nc(-c3cc4ccccc4o3)no2)CN1C1CCCC1`: the “% Inhibition” value was -15% and the Z score was found to be 1.92.
Regarding `CC(=O)Nc1c(-c2ccccc2)c(C)nn1-c1ccc(C(=O)Nc2ccc3c(c2)OCCO3)cc1`, the “% Inhibition” value came to 13% and the Z score was -1.5.
Take `CC[C@H](C)NC(=O)CC1CCN(C(=O)c2[nH]c(C)cc2C)CC1`: the “% Inhibition” value is given as -7% and the Z score worked out at 0.58.
For `CC(C)Cc1nsc(N[C@@H](CO)c2cccnc2)n1` the same measures were 4% and -0.47.
For `CN(Cc1cccc(O)c1)c1cc(C2CC(N)C2)ncn1` (stereo not drawn) the same measures were -15% and 2.83.
On to `CC1CCCCC1NC(=O)c1csc(N)n1` (stereo not drawn), for which the “% Inhibition” value is given as -9% and the Z score worked out at 1.27.
Take `Cc1ccc(C(=O)N2CCN(c3nc4ccccc4c4nnc(-c5cccc(C)c5)n34)C[C@@H]2C)cc1`: the “% Inhibition” value is reported as -1% and the Z score is reported as 0.08.
For `COc1ccc(CNC(=O)Cn2c(C)cc(C)c(-c3nc(-c4ccc5c(c4)OCO5)no3)c2=O)cc1` the same measures were 7% and -1.02.
In the same order, the values of `Cc1ccc(CN2CCN(CC#Cc3ccccc3)C[C@@H]2CCO)o1` are -5% and 0.78.
In the same order, the values of `Cc1ccc([C@H]2CN(C(=O)COCC(F)(F)C(F)F)C[C@@H]2N(C)C)cc1` are 7% and -1.05.
As to `CN1CC[C@H](N2CC3(CCC2=O)CCN(C/C=C/c2ccccc2)CC3)C1`, the “% Inhibition” value was -15% and the Z score is 1.66.
Turning to `COc1cccc(CN2CCC3(CC2)c2nc[nH]c2CCN3C(C)=O)c1`, the “% Inhibition” value is on record as 0% and the Z score is reported as 0.02.
For `c1nc(N2CCOCC2)ncc1CNc1ccc2c(c1)OCCCO2` the same measures were -1% and 0.1.
On to `Cc1cccc(OC2CN(c3cc(C(C)C)nc(N)n3)C2)c1`, for which the “% Inhibition” value is recorded as -23% and the Z score was found to be 2.31.
In the case of `Cc1cc(F)ccc1S(=O)(=O)N1CC[C@H]2[C@H](C1)OCc1cnnn12`, the “% Inhibition” value was -11% and the Z score is given as 1.1.
`CC(C)C(CNC(=O)N1CCOC(C(=O)O)C1)Cc1ccccc1` (stereo not drawn): the “% Inhibition” value is given as -8% and the Z score is 1.51.
In the same order, the values of `CCc1nnc2ccc(S(=O)(=O)Nc3ccc(Cl)cc3)cn12` are 36% and -0.99.
Consider `Cc1cc(-c2ccc(C(=O)N3CCS(=O)(=O)CC3)cc2)cn2ccnc12`, for which the “% Inhibition” value is recorded as -26% and the Z score is recorded as 2.74.
For `Cc1cccc(OC2CCCCC2NC(=O)N(C)CC2CC(O)C2)c1` (stereo not drawn) the same measures were 4% and -0.8.
For the compound `O=C(Cn1cnc2ccccc2c1=O)N[C@H](c1ccc(F)cc1)C1CCCC1`, the “% Inhibition” value is -9% and the Z score is on record as 1.22.
Regarding `CN(Cc1ccccc1C(=O)O)[C@H](c1ccccn1)C1CC1`, the “% Inhibition” value is listed as 4% and the Z score is -0.58.
For `COCCNC(=O)[C@H](CC(C)C)Nc1nccc(C(F)(F)F)n1` the same measures were -3% and 0.27.
Consider `Cc1cc(NC(=O)N2CCCC2)nn1C`, for which the “% Inhibition” value is reported as 11% and the Z score is given as -1.23.
As for `CNC(=O)c1cc(S(=O)(=O)N(C)C2(CO)CCC2)cn1C`, the “% Inhibition” value was -3% and the Z score is listed as 0.5.
In the case of `CN(CCc1cccs1)C(=O)N(c1ccccn1)C1CCCCC1`, the “% Inhibition” value is on record as -9% and the Z score was 1.1.
For `COc1ccc(-c2nc(C)cc(C)c2CNC(=O)c2ccco2)cc1` the same measures were -2% and 0.33.
In the same order, the values of `COc1ccc(C(=O)N2CCc3cc(S(=O)(=O)NC4CCCC4)ccc32)c(OC)c1` are -7% and 0.88.
In the same order, the values of `O=c1nc(C2CCN(Cc3nnn(CC(F)(F)F)n3)CC2)[nH][nH]1` are -7% and 0.81.
As to `CCCS(=O)(=O)NCc1cncc(-c2cnn(C)c2)c1`, the “% Inhibition” value is recorded as -3% and the Z score came to 0.55.
In the same order, the values of `O=C(c1ccc[n+]([O-])c1)N1CCN(c2nccn3nc4c(c23)CCCC4)CC1` are -14% and 1.82.
For `Cc1ccc([C@H](C)NC(=O)c2nccnc2N)o1` the same measures were -5% and 0.4.
Turning to `CS(=O)(=O)N1CCC(C(=O)N2CCN(c3cnsn3)CC2)CC1`, the “% Inhibition” value was 16% and the Z score is -3.29.
In the same order, the values of `CO[C@@H](C)C(=O)N(Cc1ncc[nH]1)c1cncc(Br)c1` are 2% and -0.29.
For the compound `CCOC(=O)Cn1c(=O)n(C[C@H]2CCCO2)c2nc(-c3ccc(CC)cc3)nc(C(N)=O)c21`, the “% Inhibition” value is 1% and the Z score was -0.21.
Consider `N#Cc1nc(OCC2CC2)ccc1Cl`, for which the “% Inhibition” value is listed as -6% and the Z score was found to be 1.03.
For `CN1CC[C@H](NC(=O)c2cn(C3CCCCC3)nn2)[C@H](Cc2ccccc2)C1` the same measures were -13% and 1.68.
For `O=C(C[N+]1(CC#Cc2ccccc2)CCOCC1)c1ccc(Cl)cc1` the same measures were 8% and -1.31.
As for `CN(Cc1nc(-c2c(F)cccc2F)cs1)CC1(O)CCC1`, the “% Inhibition” value is reported as -12% and the Z score stood at 1.25.
In the same order, the values of `Cc1cc(S(=O)(=O)Nc2nccc(C3CC3)n2)ccc1Cl` are -5% and 0.48.
For `COc1ccc(N([C@@H](C)C(N)=O)S(C)(=O)=O)cc1OC`, the “% Inhibition” value came to 16% and the Z score was -2.94.
In the case of `CC(NC1CCCN(Cc2ccc(F)cc2F)C1=O)C1CCOC1` (stereo not drawn), the “% Inhibition” value was -4% and the Z score was determined as 0.48.
In the same order, the values of `Cc1oc(C2CCN(C(=O)c3cc(F)ccc3Cl)CC2)nc1C(=O)N1CCOCC1` are -5% and 0.74.
In the same order, the values of `N[C@H]1C[C@H](c2cc(N3CCC4(CCCC4)C3)nc(C3CC3)n2)C1` are 32% and -3.07.
For `Cc1ccccc1C(=O)N1[C@H](C(=O)N2CCCC2)COC12CCN(C(=O)Cc1ccccc1)CC2` the same measures were 12% and -1.59.
For `Cc1c(C(=O)O)sc2ncnc(N[C@H]3CCCc4ccccc43)c12`, the “% Inhibition” value was -11% and the Z score is given as 1.83.
For the compound `Cc1cc(C(=O)N(Cc2ccoc2)C2CCCCC2)no1`, the “% Inhibition” value turned out to be 4% and the Z score is listed as -0.62.
Consider `Cc1nn(C)c2nc(NCc3ccno3)sc12`, for which the “% Inhibition” value is -18% and the Z score amounted to 1.79.
Regarding `O=C(N/C(=N/c1cccc(C(F)(F)F)c1)NCc1ccccn1)c1ccccc1`, the “% Inhibition” value was -12% and the Z score is listed as 1.08.
In the same order, the values of `Cc1ccc(S(=O)(=O)N(C)C)c(Br)c1` are -9% and 1.23.
For `CCOc1ccccc1CS(=O)(=O)[C@@H](C)C(=O)NC` the same measures were -10% and 1.51.
Regarding `O=C(Cn1cncn1)N(Cc1ccc2c(c1)OCO2)c1ccccc1`, the “% Inhibition” value is -5% and the Z score is given as 0.89.
